Assay results from patent US20220047715A1 (Johns Hopkins, published 2022).

Biological target: CD80 presented on compliable micropillars
Assay: cell-based or functional assay

B1: Cytotoxic T-Lymphocyte-Associated Antigen-4 (CTLA4), endogenous, on human MCF10A and MDA-MB231 cells (receptor)
chain: not shown
What does the source list for B1?
stress on micropillars, CTLA4-CD80 bond against integrin-fibronectin bond: 4 fold; stress on micropillars, cancer cells against normal cells: ~2 fold
